Structures can show the parent of a compound that is named as a salt. Some of the results follow. Repeats are few or missing, and single values can be far off.

The experiment relates to OVCAR4. Nature of the experiment: log2 surviving fraction (library drug vs vehicle, or drug + carboplatin vs carboplatin alone; relative to plate median); ovarian cancer lines: OVCAR4 is platinum-sensitive and Ov4Carbo platinum-resistant; higher = more cell survival. Particulars: library drug concentration 10 µM; 7 days; carboplatin co-treatment 5 µM.
For `Clc1ccc2nsnc2c1NC1=NCCN1` [Tizanidine HCl], the log2 surviving fraction is 1.11. As to `C[C@]12CCC(=O)C=C1CC[C@@H]1[C@@H]2[C@@H](O)C[C@@]2(C)[C@H]1CC[C@]2(O)C(=O)CO` [Hydrocortisone (Cortisol)], the log2 surviving fraction was found to be 0.312. For `CN(C)c1cc(NC(=O)CNC(C)(C)C)c(O)c2c1C[C@H]1C[C@H]3[C@H](N(C)C)C(O)=C(C(N)=O)C(=O)[C@@]3(O)C(O)=C1C2=O` [Tigecycline] the value was -0.0865; for `O=c1ccc2ccccc2o1` [Coumarin], -0.161. For `C[C@]12C=CC(=O)C=C1CC[C@@H]1[C@@H]2[C@@H](O)C[C@@]2(C)[C@H]1CC[C@]2(O)C(=O)CO` [Prednisolone (Hydroretrocortine)] the value was 0.789; for `C[C@H](CS)C(=O)N1CCC[C@H]1C(=O)O` [Captopril (Capoten)], -0.437.

Regarding `CC(=O)N[C@@H](CS)C(=O)O` [Acetylcysteine], the log2 surviving fraction was 0.575. For `CN(C)CCCN1c2ccccc2Sc2ccc(C(F)(F)F)cc21` [Triflupromazine HCl] the value was -0.886. With `Cc1ccc(C(=O)c2ccc(CC(=O)O)n2C)cc1` [Tolmetin Sodium], the log2 surviving fraction is 1.14. Under `C[C@@H]1C(=O)O[C@H]2C[C@@]34[C@H]5C[C@@H](C(C)(C)C)[C@]36[C@@H](OC(=O)[C@@H]6O)O[C@@]4(C(=O)O5)[C@]21O` [Ginkgolide A] stands 0.722; under `CN1CCC[C@@H]1CCO[C@](C)(c1ccccc1)c1ccc(Cl)cc1` [Clemastine Fumarate], -0.791; under `NCCc1c[nH]cn1` [Histamine Phosphate], 1.41. On to `CN(C)C(=O)Oc1ccc[n+](C)c1` [Pyridostigmine Bromide (Mestinon)], for which the log2 surviving fraction is -0.015. With `O=C(O)[C@H](CC(=O)N1C[C@H]2CCCC[C@H]2C1)Cc1ccccc1` [Mitiglinide calcium], the log2 surviving fraction is 1.03.

As for `N[C@@H](Cc1cc(I)c(Oc2cc(I)c(O)c(I)c2)c(I)c1)C(=O)O` [L-Thyroxine], the log2 surviving fraction came out at 0.429.

`CN(C/C=C/C#CC(C)(C)C)Cc1cccc2ccccc12` [Terbinafine hydrochloride (Lamisil)]: the log2 surviving fraction came out at 0.693. For `CC(C)c1nc(CN(C)C(=O)N[C@@H](CCN2CCOCC2)C(=O)N[C@H](CC[C@H](Cc2ccccc2)NC(=O)OCc2cncs2)Cc2ccccc2)cs1` [Cobicistat (GS-9350)], the log2 surviving fraction was -1.9. For `CS(=O)(=O)OCCCCOS(C)(=O)=O` [Busulfan (Myleran, Busulfex)] the value was 0.618; for `CN(C)c1ccc(O)c2c1C[C@H]1C[C@H]3[C@H](N(C)C)C(O)=C(C(N)=O)C(=O)[C@@]3(O)C(O)=C1C2=O` [Minocycline HCl], 0.211; for `CCCCCCCCCCCCCCCCO` [1-Hexadecanol], 0.161. Consider `COc1cc2nc(N3CCN(C(=O)c4ccco4)CC3)nc(N)c2cc1OC` [Prazosin HCl], for which the log2 surviving fraction is 0.103. Under `C=CC(=O)N1CCC[C@@H](n2nc(-c3ccc(Oc4ccccc4)cc3)c3c(N)ncnc32)C1` stands -2.44. Consider `C=C1/C(=C\C=C2/CCC[C@]3(C)[C@@H]([C@H](C)CCCC(C)(C)O)CC[C@@H]23)C[C@@H](O)C[C@@H]1O` [Calcitriol (Rocaltrol)], for which the log2 surviving fraction was -2.03. `CCN1CCCC1CNC(=O)c1cc(S(=O)(=O)CC)c(N)cc1OC` (stereo not given) [Amisulpride]: the log2 surviving fraction turned out to be 0.00607.

On to `CC1(C)O[C@@H]2C[C@H]3[C@@H]4C[C@H](F)C5=CC(=O)C=C[C@]5(C)[C@@]4(F)[C@@H](O)C[C@]3(C)[C@]2(C(=O)CO)O1` [Fluocinolone acetonide (Flucort-N)], for which the log2 surviving fraction is -0.0459. Regarding `COC(c1ccccc1)(c1ccccc1)[C@H](Oc1nc(C)cc(C)n1)C(=O)O` [Ambrisentan], the log2 surviving fraction is 0.0446. `CC(C)(C)NCC(O)c1ccc(O)c(CO)c1` (stereo not given) [Salbutamol sulfate (Albuterol)]: the log2 surviving fraction is -0.581.

With `CCOc1cc(CC(=O)N[C@@H](CC(C)C)c2ccccc2N2CCCCC2)ccc1C(=O)O` [Repaglinide], the log2 surviving fraction is 0.668. Consider `CCn1cc(C(=O)O)c(=O)c2cc(F)c(N3CCN(C)CC3)cc21` [Pefloxacin mesylate], for which the log2 surviving fraction is 0.847.

For the compound `CCN(CC)CCOC(=O)c1ccc(N)cc1` [Procaine (Novocaine) HCl], the log2 surviving fraction was 0.313. For `CC(C)NCC(O)c1ccc(O)c(O)c1` (stereo not given) [Isoprenaline hydrochloride] the value was 0.259; for `CN(C)CCCN1c2ccccc2CCc2ccc(Cl)cc21` [Clomipramine hydrochloride (Anafranil)], -1.84. `CC(=O)[C@H]1CC[C@H]2[C@@H]3C[C@H](C)C4=CC(=O)CC[C@]4(C)[C@H]3[C@@H](O)C[C@]12C` [Medrysone]: the log2 surviving fraction is 0.0966. For `N=C(N)NS(=O)(=O)c1ccc(N)cc1` [Sulfaguanidine] the value was 0.344.

For the compound `CN(N=O)C(=O)N[C@@H](C=O)[C@@H](O)[C@H](O)[C@H](O)CO` [Streptozotocin (Zanosar)], the log2 surviving fraction came out at 1.11. For `CCCCC1=NC2(CCCC2)C(=O)N1Cc1ccc(-c2ccccc2-c2nnn[nH]2)cc1` [Irbesartan (Avapro)] the value was 0.537; for `O=C(O)C1=CO[C@@H](O[C@@H]2O[C@H](CO)[C@@H](O)[C@H](O)[C@H]2O)[C@@H]2C(CO)=CC[C@H]12` [Geniposidic acid], 1.01; for `CCOC(=O)c1c(CSc2ccccc2)n(C)c2cc(Br)c(O)c(CN(C)C)c12` [Arbidol HCl], -1.14. For `CC(=O)OC[C@H]1O[C@@H]([S-])[C@H](OC(C)=O)[C@@H](OC(C)=O)[C@@H]1OC(C)=O.CCP(CC)CC.[Au+]` [Auranofin] the value was -7.52. Under `C[C@]12CC[C@H]3[C@@H](CC[C@@]45O[C@@H]4C(O)=C(C#N)C[C@]35C)[C@@H]1CC[C@@H]2O` [Trilostane] stands -1.58.
